From the supplement of paper PMC4967469
A lower IC50 marks a more sensitive line; fits outside the tested doses are given as limits. AUC, from the same fit, is the share of area under the viability curve across the 256-fold dose range; values near 1 show little effect. For some of these results: A top dose marked as inferred was calculated from the reported fits. For some of these results: Where an entry number is given, a second screen of the drug exists; the two often differ.

How the values were obtained:
Test in all cases: Viability of human cancer cell lines after 72 h of drug (GDSC screen)
[1] = compound: C/C=C(/C)C(=O)O[C@H]1C(C)=C2[C@H]([C@@H]1OC(=O)CCCCCCC)[C@@](C)(OC(C)=O)C[C@H](OC(=O)CCC)[C@@]1(O)[C@H]2OC(=O)[C@@]1(C)O [Thapsigargin]; settings: top dose 0.512 µM; top dose inferred
Protocol: (§1)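 Human cancer cell lines in 384-well plates, medium with 10% serum, drug for 72 h over a 256-fold dose range (nine 2-fold or five 4-fold steps up to the top dose). Adherent lines were fixed and stained with the nucleic acid dye Syto60, suspension lines read with resazurin; signal relative to control wells, capped at 0 and 100%. One two-parameter sigmoid per drug and line, fitted in a mixed model over all curves with the slope shared within a line.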

[2] = compound: C=CC(=O)Nc1cc(-n2c(=O)ccc3cnc4ccc(-c5cn[nH]c5)cc4c32)ccc1C [QL-X-138]; settings: top dose 10.24 µM; top dose inferred
Protocol: as §1

[3] = compound: CCn1c(-c2nonc2N)nc2cnc(Oc3cccc(NC(=O)c4ccc(OCCN5CCOCC5)cc4)c3)cc21 [GSK269962A]; settings: top dose inferred
Protocol: as §1

[4] = compound: COc1cc(N2CCC(O)CC2)ccc1Nc1cc(Nc2ccccc2S(=O)(=O)C(C)C)c2cc[nH]c2n1 [MPS-1-IN-1]; settings: top dose 20 µM; top dose inferred
Protocol: as §1

[5] = compound: COc1cc(O)c2c(c1)/C=C/C[C@H](O)[C@H](O)C(=O)/C=C\C[C@H](C)OC2=O [(5Z)-7-Oxozeaenol]; settings: top dose 10 µM; top dose inferred
Protocol: as §1

[6] = compound: COc1cc2ncnc(-n3nc(-c4ccccn4)nc3N)c2cc1OC [CP466722]; settings: top dose 16 µM; top dose inferred
Protocol: as §1

[7] = compound: COc1nc(C)cnc1NS(=O)(=O)c1cccnc1-c1ccc(-c2nnco2)cc1 [Zibotentan]; settings: top dose 20 µM; top dose inferred
Protocol: as §1

[8] = compound: C[C@]1(c2nc3c(C(N)=O)cccc3[nH]2)CCCN1 [ABT-888]; settings: top dose 5 µM; top dose inferred
Protocol: as §1

[9] = compound: Cc1ccc(-c2c(C(=O)CCl)n(CCCO)c3ncnc(N)c23)cc1 [CMK]; settings: top dose 4 µM; top dose inferred
Protocol: as §1

[10] = compound: Cc1ccc(F)c(NC(=O)Nc2ccc(-c3cccc4[nH]nc(N)c34)cc2)c1 [ABT-869]; settings: top dose 1.024 µM; top dose inferred
Protocol: as §1

[11] = compound: Cc1cnc(-c2cnc(NCCNc3ccc(C#N)cn3)nc2-c2ccc(Cl)cc2Cl)[nH]1 [CHIR-99021]
Protocol: as §1

[12] = compound: O=c1cc(-c2cccc3c2Sc2ccccc2S3)oc(N2CCOCC2)c1 [KU-55933]; settings: top dose 10 µM
Protocol: as §1

[13] = top dose 2.5 µM, screen: GDSC drug entry 127
[14] = top dose 5 µM, screen: GDSC drug entry 1192
[15] = top dose 2.56 µM, screen: GDSC drug entry 154
[16] = top dose 10 µM, screen: GDSC drug entry 1241, top dose inferred

Row | Cell Line | AUC [1] | IC50 [1] [µM] | AUC [2] | IC50 [2] [µM] | AUC [3, 13] | IC50 [3, 13] [µM] | AUC [3, 14] | IC50 [3, 14] [µM] | AUC [4] | IC50 [4] [µM] | AUC [5] | IC50 [5] [µM] | AUC [6] | IC50 [6] [µM] | AUC [7] | IC50 [7] [µM] | AUC [8] | IC50 [8] [µM] | AUC [9] | IC50 [9] [µM] | AUC [10] | IC50 [10] [µM] | AUC [11, 15] | IC50 [11, 15] [µM] | AUC [11, 16] | IC50 [11, 16] [µM] | AUC [12] | IC50 [12] [µM]
1 | EM-2 (chronic myeloid leukaemia, suspension) | 0.587 | 0.0573 | 0.568 | 1 | 0.718 | 0.711 | 0.412 | 0.174 | 0.902 | > 20 | 0.602 | 1.24 | 0.672 | 3.22 | 0.968 | > 20 | 0.982 | > 5 | 0.901 | > 4 | 0.978 | > 1.02 | 0.954 | > 2.56 | 0.878 | > 10 | 0.919 | > 10
2 | ES4 (Ewing sarcoma, adherent) | 0.11 | < 0.002 | 0.439 | 0.424 | 0.936 | > 2.5 | 0.845 | 4.46 | 0.794 | 10.7 | 0.799 | 5.65 | 0.709 | 4.29 | 0.97 | > 20 | 0.978 | > 5 | 0.971 | > 4 | 0.982 | > 1.02 | 0.978 | > 2.56 | 0.97 | > 10 | 0.954 | > 10
3 | ES8 (Ewing sarcoma, adherent) | 0.307 | 0.00962 | 0.39 | 0.327 | 0.736 | 0.693 | 0.803 | 2.26 | 0.686 | 3.97 | 0.561 | 0.905 | 0.725 | 4.11 | 0.985 | > 20 | 0.957 | > 5 | 0.897 | > 4 | 0.975 | > 1.02 | 0.956 | > 2.56 | 0.986 | > 10 | 0.958 | > 10
4 | EW-1 (Ewing sarcoma, semi-adherent) | 0.173 | 0.00368 | 0.371 | 0.291 | 0.975 | > 2.5 | 0.988 | > 5 | 0.667 | 3.49 | 0.829 | 5.54 | 0.629 | 2.19 | 0.985 | > 20 | 0.984 | > 5 | 0.854 | 2.77 | 0.981 | > 1.02 | 0.989 | > 2.56 | 0.903 | > 10 | 0.976 | > 10
5 | EW-11 (Ewing sarcoma, adherent) | 0.574 | 0.054 | 0.506 | 0.67 | 0.981 | > 2.5 | 0.876 | > 5 | 0.725 | 6.68 | 0.775 | 5.18 | 0.622 | 2.39 | 0.97 | > 20 | 0.972 | > 5 | 0.975 | > 4 | 0.981 | > 1.02 | 0.98 | > 2.56 | 0.978 | > 10 | 0.98 | > 10
6 | GI-1 (glioma, adherent) | 0.147 | 0.00273 | 0.606 | 1.23 | 0.183 | 0.0184 |  |  | 0.912 | > 20 | 0.645 | 1.54 | 0.832 | 9.64 | 0.984 | > 20 | 0.987 | > 5 | 0.741 | 1.18 | 0.978 | > 1.02 | 0.931 | > 2.56 | 0.811 | 5.06 | 0.883 | 9.92
7 | GRANTA-519 (B-cell lymphoma, suspension) | 0.795 | 0.21 | 0.627 | 1.38 | 0.986 | > 2.5 | 0.977 | > 5 | 0.941 | > 20 | 0.796 | 4.15 | 0.768 | 5.43 | 0.991 | > 20 | 0.991 | > 5 | 0.978 | > 4 | 0.99 | > 1.02 | 0.99 | > 2.56 | 0.99 | > 10 | 0.969 | > 10
8 | H9 (lymphoid neoplasm, suspension) | 0.161 | 0.00389 | 0.904 | 9.36 | 0.975 | > 2.5 | 0.949 | > 5 | 0.773 | 6.45 | 0.667 | 1.66 | 0.951 | > 16 | 0.99 | > 20 | 0.992 | > 5 | 0.806 | 1.62 | 0.991 | > 1.02 | 0.964 | > 2.56 | 0.957 | > 10 | 0.991 | > 10
9 | HL-60 (acute myeloid leukaemia, suspension) | 0.888 | 0.474 | 0.754 | 3.12 | 0.953 | > 2.5 | 0.95 | > 5 | 0.835 | 11.3 | 0.797 | 4.17 | 0.761 | 5.15 | 0.989 | > 20 | 0.982 | > 5 | 0.977 | > 4 | 0.988 | > 1.02 | 0.99 | > 2.56 | 0.988 | > 10 | 0.971 | > 10
